From PubChem BioAssay AID624296 (National Center for Advancing Translational Sciences (NCATS), 2012)
Screen size: about 350,000 compounds; about 9,900 (2.8%) were called active. The shares of active, inactive and inconclusive entries below differ from those in the screen. The call rests on the fitted dose curve; in most records, active means well fitted activation curve with a large enough effect; inconclusive means small, poorly fitted or top-dose-only effect; inactive means no such curve, though single readings can be large or run the other way. No potency is given beside an inconclusive call; the fits are too rough.

test: A quantitative high throughput screen for small molecules that induce DNA re-replication in MCF 10a normal breast cells.; further: nearly all actives have a fitted effect of over 50% in size; on activity, positive = re-replication: % of control where 0% means no effect; conditions: MCF 10A DNA re-replication, Hoechst nuclear intensity, 48 h; activity, positive = re-replication: at 46.1 µM (top of the series)
Potency means the concentration at half of the fitted maximal effect; tags describe the fitted curve by direction and shape.

SMILES | Potency | activity, positive = re-replication
COc1cc(NC(=O)c2cc3c(Cl)nc4ccccc4c3s2)cc(OC)c1OC | inconclusive [activator, partial curve] | –
CC(/C=N/NC(=O)c1ccc(Cn2cc([N+](=O)[O-])cn2)o1)=C\c1ccccc1 | – | inactive: 1.62%
CC1CCCC=CC2CC(OC(=O)CN(C)C)CC2C(O)C=CC(=O)O1 (stereo not drawn) | inconclusive [activator, full curve, poor fit] | –
CC(=O)NC(=S)NNC(=O)CCc1ccccc1 | – | inactive: -13.8%
CCc1ccc(/C=C2\SC(N3CCCC3)=NC2=O)cc1 | – | inactive: 1.09%
CCOc1ccc(-c2ccc(NS(=O)(=O)c3cc([N+](=O)[O-])c(C)c([N+](=O)[O-])c3)cc2)nn1 | inconclusive [activator, partial curve, poor fit] | –
CCOC(=O)c1[nH]ncc1CN1CCCC(C(=O)c2cccc3ccccc23)C1 (stereo not drawn) | – | inactive: -6.03%
COc1ccccc1C(=O)Nc1nnc(-c2ccc(F)cc2)o1 | – | inactive: -5.39%
N#Cc1c(N2CCOCC2)nsc1-c1ccccc1 | – | inactive: -2.74%
CN(C)c1ccc(/C=N/NC(=S)NCc2ccco2)cc1 | inconclusive [activator, partial curve, poor fit] | –
CCOCCCNC(=O)c1ccc(N2CC3CC(C2)c2cccc(=O)n2C3)c(NC(=O)Nc2cccc(OC)c2)c1 (stereo not drawn) | inconclusive [activator, single point] | –
CC(n1cnnn1)C12CC3CC(CC(C3)C1)C2 (stereo not drawn) | – | inactive: 21.1%
COC(CNC(=O)c1ccc2c3c(onc13)-c1ccccc1C2=O)OC | inconclusive [activator, partial curve, poor fit] | –
O=C(/C=C/c1ccc(F)cc1)Nc1ccc2[nH]c(=O)[nH]c2c1 | inconclusive [activator, single point] | –
CSc1nsc(SC)c1C(=O)N1CCN(S(=O)(=O)c2ccc(C)cc2)C1C(C)C (stereo not drawn) | – | inactive: 3.59%
NCCCC[C@H]1CNC(=S)N1CCc1cc(C(F)(F)F)cc(C(F)(F)F)c1 | – | inactive: -5.65%
O=C(CSc1ncn[nH]1)N1N=C(c2ccc(Cl)cc2)CC1c1ccco1 (stereo not drawn) | inconclusive [activator, partial curve, poor fit] | –
Cc1ccc(C(=O)Oc2cccnc2)cc1[N+](=O)[O-] | – | inactive: 17.6%
COc1ccc(OC)c(/C=N/NC(=O)c2[nH]nc3c2CCc2ccccc2-3)c1 | active: 23.1 µM | –
COc1ccc(C(=O)NC(=S)NNC(=O)c2cnccn2)cc1OC | inconclusive [activator, full curve, poor fit] | –
O=C(Cc1ccccc1)Nn1c(O)c(/C=C2\C=Nc3ccccc32)sc1=S | inconclusive [activator, single point] | –
NC(=O)SCC(=O)Nc1ccc(Cl)cc1 | inconclusive [activator, single point] | –
CCC(Cc1ccccc1)n1c(=S)[nH]c2ccccc2c1=O (stereo not drawn) | inconclusive [activator, single point] | –
Cn1c(=O)cc(SCC(=O)NCCN2CCN(c3ccccc3F)CC2)c2cc(Cl)ccc21 | – | inactive: 3.52%
CC(C)(C)c1cc(C(=O)NNc2cc(C(F)(F)F)ccc2Cl)n(Cc2ccccc2)n1 | active: 20.6 µM | –

SMILES | Potency | activity, positive = re-replication
CC(C)(C)C(=O)Nc1ccccc1C(=O)N1CCCC1 | inconclusive [activator, single point] | –
O=C(CC(Sc1ccccc1)c1cccs1)c1ccco1 (stereo not drawn) | – | inactive: -5.86%
O=C(COC(=O)c1ccccc1O)Nc1cc(S(=O)(=O)N2CCCCCC2)ccc1Cl | inconclusive [activator, single point] | –
CC1CC(C)CN(S(=O)(=O)c2ccc(NN)nc2)C1 (stereo not drawn) | inconclusive [activator, single point] | –
COc1ccc(C=O)cc1COc1ccc(C)cc1[N+](=O)[O-] | inconclusive [activator, single point] | –
COc1ccccc1NC(=O)c1cnc(SCC(=O)NCC2CCCO2)n(C)c1=O (stereo not drawn) | inconclusive [activator, partial curve, poor fit] | –
Oc1ccccc1-c1cc(C(F)(F)F)nc(-c2ccccc2)n1 | inconclusive [activator, partial curve, poor fit] | –
Cc1noc(C(=O)Nc2sc3c(c2C#N)CCC3)c1Cl | – | inactive: 0%
CC(=O)N1CCc2c(sc(NC(=O)CS(=O)(=O)c3ccc(F)cc3)c2C#N)C1 | inconclusive [activator, single point] | –
COc1ccc(C2C(C(=O)c3ccc(C)o3)=C(O)C(=O)N2Cc2cccnc2)cc1OC (stereo not drawn) | – | inactive: -15.5%
COc1cc(CNCc2ccccc2)c(Br)cc1OC1CCCC1 | inconclusive [activator, single point] | –
O=c1[nH]c2c(c3c1CCCC3)CCCC2 | inconclusive [activator, single point] | –
CC1(C)Cc2c(c(N3CCCC3)nc3sc(C(=O)Nc4ccccc4)c(N)c23)CO1 | active: 2.91 µM | –
O=C(Nc1ccc2oc(-c3ccccc3)nc2c1)c1cccs1 | – | inactive: 8.01%
Cc1cc(-c2ccc(C)c(S(=O)(=O)N3CCN(c4ccccn4)CC3)c2)on1 | – | inactive: -0.619%
COc1cc(/C=C\C(=O)NCc2ccc3c(c2)cc(C)n3C)cc(OC)c1OC | – | inactive: -14.9%
CCSC1=NC2(CCCCC2)Nc2sc3c(c21)CCCC3 | inconclusive [activator, single point] | –
CC(C)(C)n1nnnc1C(c1ccc(C(F)(F)F)cc1)N(Cc1ccccc1)Cc1ccco1 (stereo not drawn) | inconclusive [activator, partial curve] | –
CN(c1ccc(C(=O)Nc2nccs2)cc1)S(=O)(=O)c1ccccc1 | – | inactive: -3%
O=C(OCc1ccccc1)N1CCOCCOCCN(C(=O)OCc2ccccc2)CCOCCOCC1 | – | inactive: -8.36%
CC(Sc1nc2ccccc2c(=O)n1C)C(=O)Nc1ccc2c(c1)OCCO2 (stereo not drawn) | inconclusive [activator, full curve, poor fit] | –
O=C(Cc1ccccc1)NCCC1=CCCCC1 | inconclusive [activator, single point] | –
CCS(=O)(=O)c1nnnn1-c1ccccc1S(C)(=O)=O | inconclusive [activator, single point] | –
COc1cc(/C=N/n2c(C3CCCCC3)n[nH]c2=S)cc(Br)c1O | – | inactive: 0.558%
Oc1c(CN2CCCCC2)cc(Br)c2cccnc12 | active: 23.1 µM | –

SMILES | Potency | activity, positive = re-replication
CCCOc1ccc(/C=N/NC(=O)CSCc2ccc([N+](=O)[O-])cc2)cc1OCC | – | inactive: -0.0547%
O=C(/C=C/c1ccccc1)c1ccc2c(c1)OCO2 | inconclusive [activator, partial curve, poor fit] | –
CCOC(=O)N1CCN(C(=O)C(C)NC(=O)c2ccco2)CC1 (stereo not drawn) | inconclusive [activator, single point] | –
COc1ccc(C(=O)OCCCN(C)C)cc1OC | inconclusive [activator, full curve, poor fit] | –
CCOC(=O)c1c(C)[nH]c(C)c1S(=O)(=O)N(C)CC(=O)N(C)Cc1ccccc1 | – | inactive: -1.57%
CCOc1ccccc1NC(=O)Nc1ccccn1 | – | inactive: 1.02%
C=CCOc1ccccc1CNc1ccccc1C | inconclusive [activator, partial curve, poor fit] | –
CCc1ccc(/C=C2\SC(=S)N(CCC(=O)N3CCN(C)CC3)C2=O)cc1 | – | inactive: 16.2%
COc1ccc(CC(=O)NCc2cccc(CNC(=O)Cc3ccc(OC)c(OC)c3)c2)cc1OC | – | inactive: -0.824%
COCCn1c(SCC(=O)Nc2ccc(Cl)cn2)nc2ccccc21 | inconclusive [activator, partial curve] | –
N#Cc1c(-c2ccc(Cl)cc2)c(-c2ccc(Cl)cc2)nn(CCO)c1=O | inconclusive [activator, partial curve, poor fit] | –
Cc1ccccc1OCc1nc2ccccc2c(=O)n1/N=C/c1ccco1 | inconclusive [activator, partial curve, poor fit] | –
FC(F)Oc1ccc(-c2c[n+]3c(n2-c2ccccc2)CCCCC3)cc1 | – | inactive: 14.3%
CCOC(=O)C(NC(=O)CCl)(Nc1sc(C)c(CC)c1C#N)C(F)(F)F (stereo not drawn) | inconclusive [activator, partial curve, poor fit] | –
CCN(CC)C(=O)n1c(Cc2ccccc2)nc2ccccc21 | inconclusive [activator, full curve, poor fit] | –
Cc1ccc(C)c(S(=O)(=O)N/N=C2/CCCc3ccccc32)c1 | inconclusive [activator, partial curve, poor fit] | –
CC(C)c1cc(NCC2CCCO2)n2c(nc3ccccc32)c1C#N (stereo not drawn) | inconclusive [activator, single point] | –
O=C1C(=O)N(CCCO)C(c2ccc(Br)cc2)/C1=C(\O)c1ccc(Br)cc1 (stereo not drawn) | – | inactive: 10.8%
COc1ccc(CN=C2NC(=O)CC(C(=O)Nc3ccccc3C)S2)cc1 (stereo not drawn) | inconclusive [activator, partial curve, poor fit] | –
S=C(NNc1cccc(Cl)c1)NC1CCCCC1 | inconclusive [activator, partial curve] | –
CCOC(=O)c1cc(-c2ccccc2)sc1NC(=O)C(C)C | inconclusive [activator, single point] | –
COc1cccc(-c2nc(CS(=O)(=O)CC(=O)Nc3ccccc3C)c(C)o2)c1 | – | inactive: 0.899%
CC1=CC(c2ccc(Cl)cc2)n2nc(NC(=O)c3ccccc3)nc2N1 (stereo not drawn) | inconclusive [activator, single point] | –
